Laboratory results: the supplement of paper PMC8285479
Where a name gives a salt, the structure may show the parent alone. ± gives the standard deviation of the averaged measurements. Over roughly 1,900 compounds, “normalised cell viability (NPI; 0 = phenylarsine oxide control, 1 = DMSO control)” has its median near 1; the lowest 2% begin near 0.039. This is one part of the list.

Test system: NCI-H1944
Test: normalised cell viability (NPI; 0 = phenylarsine oxide control, 1 = DMSO control) (fraction of DMSO control); NCI-H1944 is a non-small cell lung cancer line; higher = more viable cells (less compound toxicity)
Settings: 6 days
[1] = glucocorticoid arm: hydrocortisone 2.75 uM co-treatment, compound 1 µM
[2] = glucocorticoid arm: hydrocortisone 2.75 uM co-treatment, compound 5 µM
[3] = glucocorticoid arm: hydrocortisone 2.75 uM pre-treated 2 days and continued, compound 1 µM
[4] = glucocorticoid arm: hydrocortisone 2.75 uM pre-treated 2 days and continued, compound 5 µM
[5] = glucocorticoid arm: vehicle, compound 1 µM
[6] = glucocorticoid arm: vehicle, compound 5 µM
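Further: CTB read-out in 384-well plates, mean of triplicate wells, normalised per plate against 1 µM phenylarsine oxide and 0.1% DMSO, compounds added 24 h after seeding.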

Structure (SMILES) | normalised cell viability [1] | normalised cell viability [2] | normalised cell viability [3] | normalised cell viability [4] | normalised cell viability [5] | normalised cell viability [6]
CC(C)C[C@H](NC(=O)[C@@H](O)[C@H](N)Cc1ccccc1)C(=O)O [Bestatin hydrochloride] | 0.996 ± 0.0046 | 1.02 ± 0.011 | 0.989 ± 0.01 | 1.02 ± 0.033 | 0.979 ± 0.012 | 0.9903 ± 0.0015
CNC(=C[N+](=O)[O-])NCCSCc1ccc(CN(C)C)o1 [Ranitidine hydrochloride] | 0.9843 ± 0.0055 | 1.04 ± 0.061 | 0.872 ± 0.22 | 0.999 ± 0.011 | 0.99 ± 0.0056 | 0.987 ± 0.0044
CNC(=C[N+](=O)[O-])NCCSCc1ccc(CN(C)C)o1 [Ranitidine] | 1.01 ± 0.011 | 1.01 ± 0.013 | 1.01 ± 0.022 | 0.9923 ± 0.007 | 1.005 ± 0.0092 | 1.003 ± 0.0058
C=CCc1ccc(O)c(-c2ccc(O)c(CC=C)c2)c1 [Honokiol] | 0.9927 ± 0.0068 | 0.962 ± 0.036 | 0.971 ± 0.0072 | 0.9857 ± 0.0095 | 1.002 ± 0.0068 | 1 ± 0.0087
O=C(O)CN(CCOCCOCCN(CC(=O)O)CC(=O)O)CC(=O)O | 1.01 ± 0.014 | 0.991 ± 0.017 | 1.03 ± 0.07 | 1 ± 0.0087 | 1.002 ± 0.0072 | 0.9983 ± 0.0029
CSc1cccc(Nc2ncc3cc(-c4c(Cl)cccc4Cl)c(=O)n(C)c3n2)c1 | 0.455 ± 0.027 | 1.09 ± 0.01 | 0.556 ± 0.038 | 1.06 ± 0.021 | 0.259 ± 0.029 | 1.063 ± 0.0058
OCc1ccc(-c2ccc(-c3ccc(CO)s3)o2)s1 | 0.979 ± 0.0061 | 0.0751 ± 0.0071 | 1.017 ± 0.0058 | 0.358 ± 0.022 | 0.621 ± 0.045 | 0.0128 ± 0.0026
O=C(O)c1ccc(Nc2ncc3c(n2)-c2ccc(Cl)cc2C(c2c(F)cccc2F)=NC3)cc1 |  | 0.979 |  |  |  | 
O=S(=O)(NCCNCC=Cc1ccc(Br)cc1)c1cccc2cnccc12 | 0.985 ± 0.012 | 0.985 ± 0.025 | 1.03 ± 0.01 | 1.007 ± 0.0058 | 1.002 ± 0.0072 | 0.968 ± 0.016
CC(=O)NNC(=O)N1Cc2ccccc2Oc2ccc(Cl)cc21 | 0.997 ± 0.0052 | 1.005 ± 0.0087 | 0.808 ± 0.34 | 1.01 ± 0.011 | 0.9977 ± 0.0015 | 0.9877 ± 0.0045
CNC[C@H](O)c1cccc(O)c1 [Phenylephrine HCl] | 1.02 ± 0.017 | 1.01 ± 0.025 | 1.03 ± 0.01 | 1.01 ± 0.02 | 1.007 ± 0.0058 | 1.001 ± 0.0085
CNC[C@H](O)c1cccc(O)c1 [(R)-(-)-Phenylephrine hydrochloride] | 1.023 ± 0.0058 | 1.01 ± 0.015 | 1.017 ± 0.0058 | 0.902 ± 0.19 | 1.01 | 1.02 ± 0.015
Cc1nc(Nc2n[nH]c3c2CN(C(=O)N[C@H](CN(C)C)c2ccccc2)C3(C)C)c2sccc2n1 | 0.832 ± 0.033 | 0.29 ± 0.072 | 1.05 ± 0.015 | 0.763 ± 0.02 | 0.12 ± 0.011 | 0.0302 ± 0.0031
[Cl-].[Li+] [Lithium Chloride] | 1.007 ± 0.0058 | 0.998 ± 0.013 | 1.01 ± 0.013 | 1.01 ± 0.018 | 1.01 | 1.002 ± 0.0072
CCOc1ccn(-c2ccc(F)cc2)c(=O)c1C(=O)Nc1ccc(Oc2ccnc(N)c2Cl)c(F)c1 | 0.981 ± 0.034 | 0.832 ± 0.06 | 0.9887 ± 0.004 | 0.889 ± 0.034 | 1 ± 0.014 | 0.9513 ± 0.0029
CCn1cc(-c2ccnc3[nH]c(-c4cccc(CN(C)C)c4)cc23)c(-c2ccc(NC(=O)N(C)C)cc2)n1 | 0.802 ± 0.024 | 0.444 ± 0.01 | 0.919 ± 0.026 | 0.676 ± 0.022 | 0.509 ± 0.038 | 0.0863 ± 0.0092
